Experimental data: paper PMC11349758
These are yes or no findings as the source states them, for the method shown. Binding seen in cells or lysates may run through a third protein. Some results given as binding are weak or reduced against the parent protein; the word gives no strength.

Chains of the proteins cited; added tags and fusions are not shown. Lines headed by an entry give the natural chain unless they say otherwise; changes in a name come on top.
UniProt P42230: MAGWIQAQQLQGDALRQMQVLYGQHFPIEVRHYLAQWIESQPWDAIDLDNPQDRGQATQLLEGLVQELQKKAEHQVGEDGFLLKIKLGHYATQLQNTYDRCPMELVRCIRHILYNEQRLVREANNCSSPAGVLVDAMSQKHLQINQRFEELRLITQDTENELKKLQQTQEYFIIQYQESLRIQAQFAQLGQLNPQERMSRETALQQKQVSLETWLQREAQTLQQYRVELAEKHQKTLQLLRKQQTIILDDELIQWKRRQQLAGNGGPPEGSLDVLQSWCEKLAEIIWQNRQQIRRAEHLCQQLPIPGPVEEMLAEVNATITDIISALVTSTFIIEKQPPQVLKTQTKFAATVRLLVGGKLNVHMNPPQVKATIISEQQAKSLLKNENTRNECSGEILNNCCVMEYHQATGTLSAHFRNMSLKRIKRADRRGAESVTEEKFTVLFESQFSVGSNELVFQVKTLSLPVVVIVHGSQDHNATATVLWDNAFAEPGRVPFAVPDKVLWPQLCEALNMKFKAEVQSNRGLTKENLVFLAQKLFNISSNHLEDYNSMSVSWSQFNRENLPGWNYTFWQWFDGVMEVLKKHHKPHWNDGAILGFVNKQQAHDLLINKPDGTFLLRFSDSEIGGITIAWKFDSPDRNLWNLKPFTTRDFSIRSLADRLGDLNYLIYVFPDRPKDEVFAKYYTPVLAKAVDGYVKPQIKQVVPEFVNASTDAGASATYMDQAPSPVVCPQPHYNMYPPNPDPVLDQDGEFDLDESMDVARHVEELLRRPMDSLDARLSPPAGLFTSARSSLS
UniProt P42232: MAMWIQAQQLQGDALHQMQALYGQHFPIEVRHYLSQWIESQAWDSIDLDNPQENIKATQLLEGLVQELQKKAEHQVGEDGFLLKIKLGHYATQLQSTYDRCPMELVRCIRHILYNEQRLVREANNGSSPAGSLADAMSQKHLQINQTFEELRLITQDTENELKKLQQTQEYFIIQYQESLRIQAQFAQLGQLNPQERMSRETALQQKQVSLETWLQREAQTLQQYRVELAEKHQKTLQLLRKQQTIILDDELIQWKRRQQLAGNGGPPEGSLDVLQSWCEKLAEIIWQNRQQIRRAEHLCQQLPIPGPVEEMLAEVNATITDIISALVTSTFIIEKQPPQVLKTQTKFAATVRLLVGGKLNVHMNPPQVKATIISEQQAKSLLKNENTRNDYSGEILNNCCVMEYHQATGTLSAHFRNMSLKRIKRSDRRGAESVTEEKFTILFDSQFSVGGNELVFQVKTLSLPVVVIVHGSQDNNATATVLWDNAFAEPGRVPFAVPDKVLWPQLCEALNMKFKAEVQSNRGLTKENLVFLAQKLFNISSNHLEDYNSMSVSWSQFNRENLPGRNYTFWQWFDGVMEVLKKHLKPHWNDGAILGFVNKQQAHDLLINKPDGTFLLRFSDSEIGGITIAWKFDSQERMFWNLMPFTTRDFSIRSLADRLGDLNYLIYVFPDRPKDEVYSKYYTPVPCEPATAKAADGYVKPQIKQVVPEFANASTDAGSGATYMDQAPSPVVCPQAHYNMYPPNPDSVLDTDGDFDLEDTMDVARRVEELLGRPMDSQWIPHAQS

How the values were obtained:
[1] = target: STAT5A^Y694F (mouse (endogenous in mouse splenic T cells)) (UniProt P42230); test: co-IP; lysates of preactivated mouse T cells stimulated with 500 IU/ml IL-2 for 20 min; high salt NP40 lysis buffer (10 mM Tris pH 7.5, 0.3 M NaCl, 0.5% NP40); IP with rabbit anti-STAT5A antiserum (R1216) and protein A/G magnetic beads at 4 °C overnight; blot with anti-STAT5B
[2] = target: tyrosine phosphorylated STAT5A (pYSTAT5A) (mouse (endogenous in mouse splenic T cells)) (UniProt P42230); test: as above
[3] = target: STAT5A^Y694F (mouse (endogenous in mouse splenic T cells)) (UniProt P42230); test: co-IP; lysates of preactivated mouse T cells cultured without IL-2 (not stimulated); high salt NP40 lysis buffer (10 mM Tris pH 7.5, 0.3 M NaCl, 0.5% NP40); IP with rabbit anti-STAT5A antiserum (R1216) and protein A/G magnetic beads at 4 °C overnight; blot with anti-STAT5B
[4] = target: STAT5A (cells not stimulated with IL-2) (mouse (endogenous in mouse splenic T cells)) (UniProt P42230); test: as above

Substance | binding [1] | binding [2] | binding [3] | binding [4]
tyrosine phosphorylated STAT5B (pYSTAT5B) (from UniProt P42232 1-786) | no binding | binds |  | 
STAT5B (cells not stimulated with IL-2) (from UniProt P42232 1-786) |  |  | no binding | 
STAT5B^Y699F (from UniProt P42232 1-786) |  | no binding |  | no binding
